Results reported in article PMC12756210.
These are yes or no findings as the source states them, for the method shown. Binding seen in cells or lysates may run through a third protein. Tags and fused reporters may be left off the sequences shown. One block for each substance: values may come before it.

By UniProt entry, the sequences of proteins in these tests, tags left out.
UniProt P05804: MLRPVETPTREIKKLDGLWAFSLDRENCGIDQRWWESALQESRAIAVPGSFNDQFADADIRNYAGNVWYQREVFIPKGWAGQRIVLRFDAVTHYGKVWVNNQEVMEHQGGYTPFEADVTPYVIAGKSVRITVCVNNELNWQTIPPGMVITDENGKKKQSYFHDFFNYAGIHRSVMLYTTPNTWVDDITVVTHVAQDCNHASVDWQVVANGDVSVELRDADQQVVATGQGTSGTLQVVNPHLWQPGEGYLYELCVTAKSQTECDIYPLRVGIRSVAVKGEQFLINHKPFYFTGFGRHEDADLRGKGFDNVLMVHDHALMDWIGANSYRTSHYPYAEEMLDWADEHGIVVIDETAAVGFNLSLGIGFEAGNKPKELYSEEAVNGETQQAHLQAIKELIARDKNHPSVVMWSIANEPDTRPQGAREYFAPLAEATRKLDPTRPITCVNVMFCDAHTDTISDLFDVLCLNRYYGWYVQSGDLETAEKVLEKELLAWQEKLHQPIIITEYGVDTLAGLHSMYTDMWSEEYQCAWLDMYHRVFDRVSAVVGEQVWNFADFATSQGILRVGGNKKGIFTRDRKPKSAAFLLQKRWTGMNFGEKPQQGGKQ

How the values were obtained:
ZIP2-GFP (Arabidopsis) = biological target: T1, ZIP2-GFP (Arabidopsis) (UniProt Q9LTH9); assay: co-IP; total protein of 10-day-old transgenic Arabidopsis seedlings in IP buffer (50 mM Tris HCl pH 7.6, 150 mM NaCl, 0.5% NP-40); anti-GFP agarose beads; blots with anti-FLAG and anti-GFP antibodies
T1 sequence: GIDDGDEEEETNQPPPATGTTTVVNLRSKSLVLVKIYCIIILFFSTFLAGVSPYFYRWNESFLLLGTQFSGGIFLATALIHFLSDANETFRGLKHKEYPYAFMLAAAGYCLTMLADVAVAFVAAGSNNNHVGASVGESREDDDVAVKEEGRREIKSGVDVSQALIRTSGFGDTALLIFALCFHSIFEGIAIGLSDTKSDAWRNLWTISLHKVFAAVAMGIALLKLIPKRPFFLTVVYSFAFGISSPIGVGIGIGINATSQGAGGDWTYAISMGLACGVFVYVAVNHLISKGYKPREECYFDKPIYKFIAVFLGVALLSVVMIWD

ZIP2-cLUC (Arabidopsis) = biological target: T2, ZIP2-cLUC (Arabidopsis) (UniProt Q9LTH9); assay: split reporter; split luciferase complementation imaging (LCI): nLUC and cLUC fusions co-infiltrated by Agrobacterium GV3101 into N. benthamiana leaves, expressed 48 h, signal read by CCD
T2 sequence: T1 sequence

ZIP2-cYFP (Arabidopsis) = biological target: T3, ZIP2-cYFP (Arabidopsis) (UniProt Q9LTH9); assay: split reporter; BiFC: nYFP and cYFP fusions transiently co-expressed in N. benthamiana leaves with CBL1-OFP as plasma membrane marker; YFP fluorescence read 48 h after transfection
T3 sequence: T1 sequence

- binding (ZIP2-GFP (Arabidopsis)): no binding
Substance: GUS-FLAG (from UniProt P05804 1-603)

- binding (ZIP2-cLUC (Arabidopsis)): no binding
Substance: GUS-nLUC (from UniProt P05804 1-603)

- binding (ZIP2-cYFP (Arabidopsis)): no binding
Substance: GUS-nYFP (from UniProt P05804 1-603)
